Source: the antibiotic and cytotoxicity screens of Wong et al. (2023)
The list shows a part of the results.

Assays:
HSkMC = human skeletal muscle cells; assay: cytotoxicity call (relative viability < 0.9); details: 10 µM
HepG2 = assay: cytotoxicity call (relative viability < 0.9); details: 10 µM
S. aureus RN4220 = assay: growth inhibition call (relative growth <= 0.2); details: 50 µM

| SMILES | cytotoxicity call (HSkMC) | cytotoxicity call (HepG2) | growth inhibition call (S. aureus RN4220) |
| --- | --- | --- | --- |
| Cc1ccc(S(=O)(=O)Nc2ccc3c(c2)C(=O)N([C@H](C)CO)C[C@H](C)[C@H](CN(C)Cc2ccccc2)OCCCC[C@@H](C)O3)cc1 | inactive | inactive | inactive |
| C[C@H](CO)N1C[C@H](C)[C@H](CN(C)Cc2ccncc2)OCCCC[C@H](C)Oc2ccc(NS(C)(=O)=O)cc2C1=O | inactive | inactive | inactive |
| COc1ccc(S(=O)(=O)N(C)C[C@H]2OCCCC[C@H](C)Oc3ccc(NS(=O)(=O)c4ccc(Cl)cc4)cc3C(=O)N([C@H](C)CO)C[C@@H]2C)cc1 | inactive | active | inactive |
| CNC[C@H]1Oc2ccc(NS(=O)(=O)c3cn(C)cn3)cc2C(=O)N([C@@H](C)CO)C[C@@H]1C | inactive | inactive | inactive |
| O=C(C[C@H]1C[C@@H]2c3cc(NC(=O)C4CCOCC4)ccc3O[C@@H]2[C@@H](CO)O1)NCc1cc(F)ccc1F | inactive | inactive | inactive |
| COc1cccc(NC(=O)C[C@H]2CC[C@H]3[C@@H](COc4ccc(NC(=O)C5CCOCC5)cc4C(=O)N3C)O2)c1 | inactive | inactive | inactive |
| CC(C)NC(=O)Nc1cccc2c1O[C@H](CN(C)S(=O)(=O)c1cccs1)[C@@H](C)CN([C@H](C)CO)C2=O | inactive | inactive | inactive |
| C[C@H]1CN([C@@H](C)CO)C(=O)c2cccc(NC(=O)C3CCOCC3)c2O[C@H]1CN(C)S(=O)(=O)c1cn(C)cn1 | inactive | inactive | inactive |
| C[C@H](CO)N1C[C@H](C)[C@H](CN(C)C(=O)c2cnccn2)Oc2ncc(/C=C/c3ccccc3)cc2C1=O | inactive | inactive | inactive |
| FC(F)(F)CN1CCNCC1 | inactive | inactive | inactive |
| COc1ccc(-c2cnc3c(c2)C(=O)N([C@@H](C)CO)C[C@H](C)[C@H](CN(C)S(=O)(=O)c2ccc(OC)cc2)O3)cc1 | inactive | inactive | inactive |
| O=C(O)CCC/C=C\C/C=C\C/C=C\C/C=C\CCCCCO | inactive | inactive | inactive |
| CC1(C)Cc2c(-c3ccccc3)c(-c3ccc(Cl)cc3)c(CC(=O)O)n2C1 | inactive | inactive | active |
| C[C@@H]1CCCCO[C@H](CN(C)Cc2ccncc2)[C@@H](C)CN([C@H](C)CO)C(=O)c2cc(NC(=O)Cc3ccccc3)ccc2O1 | inactive | inactive | inactive |
| C[C@H](CO)N1C[C@H](C)[C@@H](CN(C)C(=O)Nc2cccc(F)c2)Oc2cc(C#CC3(O)CCCC3)ccc2S1(=O)=O | inactive | inactive | inactive |
| NCCN1CCO[C@H](c2ccccc2)C1 | inactive | inactive | inactive |
| O=C(C[C@H]1C[C@@H]2c3cc(NS(=O)(=O)c4ccc(F)cc4)ccc3O[C@@H]2[C@H](CO)O1)NCc1cccc(F)c1 | inactive | inactive | inactive |
| CCOC(=O)CCCCCC(=O)Nc1ccc2c(c1)C(=O)N([C@@H](C)CO)C[C@@H](C)[C@H](CN(C)C(=O)c1ccncc1)OCCCC[C@H](C)O2 | inactive | inactive | inactive |
| COc1ccc(S(=O)(=O)Nc2cccc3c2O[C@@H](CN(C)C(=O)NC(C)C)[C@@H](C)CN([C@H](C)CO)C3=O)cc1 | inactive | inactive | inactive |
| C[C@@H]1CN([C@H](C)CO)C(=O)c2cccc(NC(=O)c3ccc(-c4nccs4)cc3)c2O[C@@H]1CN(C)Cc1ccccc1 | inactive | inactive | inactive |

| SMILES | cytotoxicity call (HSkMC) | cytotoxicity call (HepG2) | growth inhibition call (S. aureus RN4220) |
| --- | --- | --- | --- |
| CC(O)(CC(=O)O)CC(=O)O | inactive | inactive | inactive |
| CC12CCC(CC1)C(C)(C)O2 | inactive | inactive | inactive |
| C[C@@H]1CN([C@H](C)CO)C(=O)c2cc(NC(=O)Nc3ccc(C(F)(F)F)cc3)ccc2O[C@@H](C)CCCCO[C@@H]1CN(C)C(=O)c1ccccc1 | active | inactive | inactive |
| C[C@]12C[C@]3(O)O[C@@H](O1)[C@]1(COC(=O)c4ccccc4)[C@H]3C[C@@]12O[C@@H]1O[C@H](CO)[C@@H](O)[C@H](O)[C@H]1O | inactive | inactive | inactive |
| COc1ccc(S(=O)(=O)N2C[C@H](O)COC[C@@H]3O[C@H](CC(=O)N[C@H]4CCN(Cc5ccccc5)C4)CC[C@H]32)cc1 | inactive | inactive | inactive |
| COc1ccc(S(=O)(=O)N(C)C[C@H]2Oc3ccc(NS(=O)(=O)c4ccc(F)cc4)cc3C(=O)N([C@H](C)CO)C[C@@H]2C)cc1 | inactive | inactive | inactive |
| O=C(C[C@@H]1CC[C@@H]2[C@H](COC[C@@H](O)CN2C(=O)c2ccccc2)O1)N1CCOCC1 | inactive | inactive | inactive |
| C[C@H](CO)N1C[C@H](C)[C@@H](CN(C)S(=O)(=O)c2cn(C)cn2)Oc2c(NS(=O)(=O)c3cccs3)cccc2C1=O | inactive | active | inactive |
| O=C(C[C@H]1C[C@@H]2c3cc(NS(=O)(=O)c4ccc(F)cc4)ccc3O[C@@H]2[C@@H](CO)O1)N1CCCCC1 | inactive | inactive | inactive |
| C[C@@H]1CCCCO[C@@H](CN(C)C(=O)Nc2ccccc2)[C@@H](C)CN([C@H](C)CO)C(=O)c2cc(NS(=O)(=O)c3cccs3)ccc2O1 | inactive | inactive | inactive |
| C[C@@H]1CN([C@@H](C)CO)C(=O)c2cccc(NC(=O)C3CCCCC3)c2O[C@@H]1CN(C)Cc1ccc(Cl)c(Cl)c1 | inactive | inactive | inactive |
| C[C@H]1CN([C@@H](C)CO)C(=O)c2cc(NC(=O)CCN3CCOCC3)ccc2O[C@H]1CN(C)S(C)(=O)=O | inactive | inactive | inactive |
| CNC(=O)C[C@H]1CC[C@@H]2[C@H](COC[C@@H](O)CN2C(=O)Nc2cccc(OC)c2)O1 | inactive | inactive | inactive |
| Fc1cccc2c(Cl)ccnc12 | inactive | inactive | inactive |
| C[C@H](O)C#Cc1ccc2c(c1)O[C@@H](CN(C)C(=O)c1ccccc1)[C@H](C)CN([C@@H](C)CO)S2(=O)=O | inactive | inactive | inactive |
| Cc1ccc(S(=O)(=O)N(C)C[C@H]2OCCCC[C@@H](C)Oc3ccc(NC(=O)Nc4ccc(C(F)(F)F)cc4)cc3C(=O)N([C@@H](C)CO)C[C@@H]2C)cc1 | inactive | active | inactive |
| C[C@H](CO)N1C[C@H](C)[C@@H](CN(C)Cc2ccc3c(c2)OCO3)OCCCC[C@H](C)Oc2ccc(NS(=O)(=O)c3ccccc3)cc2C1=O | inactive | inactive | inactive |
| NC(=O)C[C@H](NC(=O)Cc1ccc(O)cc1O)C(=O)O | inactive | inactive | inactive |
| C[C@H](CO)N1C[C@H](C)[C@@H](CN(C)S(=O)(=O)c2ccc(F)cc2)Oc2c(NS(=O)(=O)c3ccc(F)cc3)cccc2C1=O | inactive | inactive | inactive |
| C[C@H](CO)N1C[C@H](C)[C@H](CN(C)CC2CC2)OCCCC[C@H](C)Oc2ccc(NC(=O)Nc3ccc4c(c3)OCO4)cc2C1=O | inactive | inactive | inactive |

| SMILES | cytotoxicity call (HSkMC) | cytotoxicity call (HepG2) | growth inhibition call (S. aureus RN4220) |
| --- | --- | --- | --- |
| CN(Cc1[nH]nc2c1CCCC2)C(=O)Cc1n[nH]c(=O)[nH]1 | inactive | inactive | inactive |
| C[C@H]1CCCCO[C@@H](CN(C)C(=O)Nc2ccc3c(c2)OCO3)[C@@H](C)CN([C@@H](C)CO)C(=O)c2cc(NS(=O)(=O)c3cccs3)ccc2O1 | inactive | inactive | inactive |
| O=C(O)[C@@H]1CC(=O)N(c2ccc3c(c2)OCO3)C1 | inactive | inactive | inactive |
| Cc1nnnn1CC(=O)Nc1ccc(F)cc1 | inactive | inactive | inactive |
| CNC(=O)Cn1cc(N)cn1 | inactive | inactive | inactive |
| C[C@@H]1CN([C@H](C)CO)C(=O)Cc2cc(NC(=O)Cc3ccccc3)ccc2O[C@H]1CN(C)C(=O)Nc1cccc2ccccc12 | inactive | inactive | inactive |
| CC(C)NC(=O)N(C)C[C@@H]1Oc2ccc(NC(=O)NC3CCCCC3)cc2CC(=O)N([C@@H](C)CO)C[C@@H]1C | inactive | inactive | inactive |
| C[C@H](CO)N1C[C@H](C)[C@H](CN(C)C(=O)CN(C)C)Oc2ncc(-c3ccc(C(=O)N(C)C)cc3)cc2C1=O | inactive | inactive | inactive |
| C[C@@H]1CN([C@H](C)CO)C(=O)c2cc(NC(=O)C3CC3)ccc2O[C@H]1CN(C)C(=O)Nc1ccc2c(c1)OCO2 | inactive | inactive | inactive |
| O=C(O)[C@H](O)[C@H](O)[C@H](O)[C@H](O)CO | inactive | inactive | inactive |
| CC(C)NC(=O)N(C)C[C@@H]1OCCCC[C@H](C)Oc2ccc(NC(=O)Nc3ccc(F)cc3)cc2C(=O)N([C@H](C)CO)C[C@@H]1C | inactive | inactive | inactive |
| O=C(CCCCC(=O)N/N=C/[C@H](O)[C@@H](O)[C@@H](O)[C@H](O)CO)NO | inactive | inactive | inactive |
| C[C@@H]1CCCCO[C@@H](CN(C)C(=O)NC2CCCCC2)[C@H](C)CN([C@@H](C)CO)C(=O)c2cc(NC(=O)Nc3ccc(C(F)(F)F)cc3)ccc2O1 | inactive | inactive | inactive |
| C[C@@H]1CN([C@@H](C)CO)C(=O)c2cccc(NC(=O)c3ccc(-c4nccs4)cc3)c2O[C@@H]1CN(C)C(=O)NC1CCCCC1 | inactive | inactive | inactive |
| Cc1ccc(S(=O)(=O)N(C)C[C@H]2Oc3ccc(NC(=O)C4CC4)cc3CC(=O)N([C@H](C)CO)C[C@H]2C)cc1 | inactive | inactive | inactive |
| Cc1noc(C)c1S(=O)(=O)Nc1ccc2c(c1)CC(=O)N([C@H](C)CO)C[C@@H](C)[C@H](CN(C)Cc1ccccc1)O2 | inactive | inactive | inactive |
| CCCn1c(=O)[nH]c(=O)c2[nH]cnc21 | inactive | inactive | inactive |
| COc1ccc(S(=O)(=O)N2C[C@H](O)COC[C@@H]3O[C@H](CC(=O)NCCCN(C)C)CC[C@H]32)cc1 | inactive | inactive | inactive |
